Data as given in ChEMBL document CHEMBL4888484, “Replenishing the malaria drug discovery pipeline: Screening and hit evaluation of the MMV Hit Generation Library 1 (HGL1) against asexual blood stage Plasmodium falciparum ,using a nano luciferase reporter read-out” (2022).
Where “and” joins values, the source holds several entries; their conditions need not be identical. Equal values may be shown once. The whole screen tested about 150,000 compounds, of which about 540 (0.36%) showed an effect of 50% or more. Some of the results follow.

Test system: Plasmodium falciparum
Experiment: Primary screen in NF54 nanoGlo assay, in single point, at 2uM, 72h; a lower Z score goes with more inhibition
Format: functional, Erythrocyte
Conditions: timepoint 72 hour

SMILES	% Inhibition [%]	Z score	% Inhibition (2 µM)
Nc1nc2c(c(N[C@H]3C[C@@H](c4cc(=O)[nH]cn4)C3)n1)CCC2	-9	1.66	
FC(F)c1cc(C2CC2)n([C@H]2CCCOC2)n1	-16	1.44	
Cc1nonc1[C@H](C)NCCN1CCCOCC1	8	-1.35	
O=C(Cn1cccn1)Nc1nncn1C1CC1	-6	0.76	
CCCc1nc(CN(CC)C(=O)NCc2cncn2CC)no1	-16	1.57	
Cc1n[nH]c(=O)nc1NC1CCCCCCC1	-10	1.29	
O=C(Nc1ccc(=O)n(Cc2cccnc2)c1)c1cc2ccccc2o1	4	-0.74	
CCc1cc(NC(=O)N2CCN([C@H]3CCCN(C)C3)CC2)nn1C	9	-1.08	
COc1ccc2cc3n(c2c1)C[C@](C(=O)NC1CCCCCC1)(c1ccccc1)N(Cc1ccccc1Cl)C3=O	32	-1.22	
CCn1ncc(CN(C)c2ncc3c(=O)n(-c4ccccc4)c(=O)[nH]c3n2)c1C	-8	0.94	
Cc1cc(C(=O)N2CCN(c3ccccc3F)CC2)nc(N(C)C)n1	29	-3.91	
O=C(NCc1ccco1)c1cn(-c2ncccc2-c2nc(-c3ccccc3)no2)cn1	-5	0.68	
CCc1ncnc(NCc2cnn(C)c2C)c1F	-6	0.98	
Cc1cccc(N2CCN([C@H]3CS(=O)(=O)C[C@@H]3S(=O)(=O)c3ccc(F)c(C)c3)CC2)c1	-20	2.49	
CCC(=O)N1CCc2[nH]cnc2C12CCN(C(=O)[C@@H](C)Cn1cncn1)CC2	-9	1.02	
Cc1cc(CNC(=O)N(Cc2cnn(C)c2)CC(C)C)ccn1	-8	1.38	
CCOC[C@H]1CCN(C(=O)c2occc2NC(=O)OC(C)(C)C)C1	-14	1.76	
CCOCCO/C(=N/C(=O)c1cccc(OC)c1)NCCCOC	-22	1.93	
C[C@@]1(c2nc(Cc3cccs3)nn2CC(F)(F)F)CCCO1	-15	1.41	
COc1cc2c(cc1OC)CN(c1cc(C(=O)NC3C[C@H]4CC[C@@H]3C4)c3ccccc3n1)CC2 (stereo partly specified)	12	-2.02	
Cc1ccnc(NC(=O)c2cc(O)ncn2)c1	-15	2.49	
O=C(CN[C@@H](CO)c1ccc(Cl)c(F)c1)N1CCCCCC1	-6	1.2	

SMILES	% Inhibition [%]	Z score	% Inhibition (2 µM)
O=C(Nc1ccc2[nH]c(C3CC3)nc2c1)c1cccs1	-16	1.75	
COc1ccc(CNC(=O)C[C@@H]2O[C@H](CNC(=O)Nc3cccc(F)c3)[C@@H](O)[C@H]2O)cc1	-6	0.93	
Cc1n[nH]c(NC(=O)C(C)(C)C2CCC2)c1C	1	-0.19	
CC1CCN(Cc2cnc3ccccn23)CC1n1ccnc1 (stereo unspecified)	-9	0.77	
CN1CCN(C(=O)[C@@H]2CC3(CCN(S(=O)(=O)c4ccccc4F)CC3)CN2C)CC1	0	0.01	
COC(OC)[C@H](C)NC(=O)Nc1ccc(F)cn1	-3	0.42	
Cn1c(=O)c2cn3c(c2n(C)c1=O)[C@@H](c1cc(Cl)ccc1O)Nc1ccccc1-3	1	-0.27	
COc1ccc(O)c(C(=O)N[C@H]2CC[C@H](OC)CC2)c1	19	-2.44	
Cc1cnc([C@H](C)Nc2ccc(C#N)c(C)n2)s1	-4	0.74	
CCc1noc(-c2cccnc2-n2cnc(C(=O)Nc3cccc(C)c3C)c2)n1	-15	1.97	
O=C(NC1CCNCC1)C1(Cc2ccccc2)CC2CCC1C2 (stereo unspecified)	-4	0.32	
Cc1cc(=O)c(C(=O)N2CCN(c3ncccc3C)CC2)c(C)[nH]1	5	-0.65	
O=C(NC1CC(N2CCCCC2)C1)c1coc(C2CCCCC2)n1 (stereo unspecified)	-7	1.01	
O=C(CN1CCCCC1)Nc1cccc2nonc12	9	-1.29	
CCCCn1ncnc1-c1ccc(N(C)C)nc1	-6	1.14	
COCCC1(C(=O)Nc2cc(C(=O)N3CCCCC3)ccc2Cl)CCC1	6	-0.74	
CCCCNC(=O)N1CCC[C@@H]1CS(N)(=O)=O	0	0.04	
COc1ccc2c(c1)[C@]1(C(=O)N2)C(C(=O)c2ccco2)[C@@H](c2ccc(Cl)cc2)CN1C (stereo partly specified)	1	-0.16	
O=C1N[C@H]2CN(C(=O)c3ccc4c(c3)OCCO4)C[C@@H]2OCc2cn(nn2)CCOc2cccnc21	-4	0.47	
O=C(NCC[C@H](O)c1ccco1)c1ccccn1	-3	0.47	
COc1ccc([C@@H]2C=C(c3ccc(Cl)cc3)N=C3NC(NC(=O)c4ccccc4OC)=NN32)cc1	96	-8.52	
O=C(c1csc2c1CCCC2)N1CCCCCCC1	4	-0.62	

SMILES	% Inhibition [%]	Z score	% Inhibition (2 µM)
O=C1C[C@@H](C(=O)Nc2ccccc2)c2c(O)nc(N3CCOCC3)nc2N1			-12% and -3%
O=C(c1ccccc1)N1CCN(CCS(=O)(=O)Oc2ccccc2)CC1	10	-1.42	
CC(C)(CNC(=O)c1ccc2cc[nH]c2n1)C1CCOCC1	4	-0.67	
Cc1nc2cc(Br)cc(NC(=O)COc3ccc(F)cc3)c2o1	1	-0.15	
O=C(NCCc1cn([C@H]2CCOC2)nn1)C1CCCCCCC1	-7	1.41	
CC[C@@H](C(=O)Nc1cc(C)ccc1OC)n1nc(C)c2c(C)onc2c1=O	10	-0.97	
O=C(Nc1cccc(C=Cc2ccncn2)c1)C(F)(F)F	4	-0.36	
NC(=O)NC(=O)CN1CCCC1CC(O)c1cccs1 (stereo unspecified)	-10	1.02	
Cc1nnc(COC(=O)c2cccc(C3OCCO3)c2)o1	-2	0.31	
OCCn1c(CN2CCC[C@H](c3nc4ccccc4s3)C2)nc2ccc(Cl)cc21	-14	2.3	
CCN1C[C@@H](CN(C)C(=O)c2cncc(O)c2)CC1=O	-5	0.78	
Cc1ncc(COc2ccc3c(c2)CCO3)o1	-8	0.78	
Cc1cc(C)n(-c2ccc(Cn3c(C(F)(F)F)nc4ccccc43)cc2)n1	-4	0.41	
CCc1cc(C(=O)NCc2ccco2)nc2cc(-c3ccco3)nn12	-2	0.26	
O=C(NCc1ccc(-n2cncn2)nc1)c1cccnc1	9	-1.14	
CCC(=O)N1CCCC[C@H]1c1nnc2n1CCN(C(=O)c1ccncn1)C2	2	-0.35	
COc1ncc(NC(=O)Nc2ccc(F)cc2F)cn1	-2	0.3	
CC(=O)C(=CNc1ncc(C(F)(F)F)cc1Cl)C(C)=O	-6	1.17	
CC[C@](C)(NCCCN1C(=O)CNC1=O)c1nccs1	-11	1.74	
Cc1nc(-c2noc(-c3ccncc3)n2)cn1CC(=O)NCc1ccccc1	-1	0.09	
C[C@H](NCc1nnc(C2CC2)o1)c1ccc(F)cc1Cl	1	-0.23	
Cn1cc(NC(=O)[C@H]2CC(=O)N(c3ccc(F)cc3)C2)cc1C(N)=O	-9	1.69	

SMILES	% Inhibition [%]	Z score	% Inhibition (2 µM)
CC(C1CC1)N(C)CC(=O)N1CCCCC1C (stereo unspecified)	-16	2.01	
COCCN1C(=O)Cc2ccccc2[C@@H]1C(=O)NCc1cccc(F)c1	1	-0.15	
CCCc1csc(CC(=O)NCc2ccco2)n1	-4	0.52	
CCCN(CCC)C(=O)c1c(CC)noc1C	-2	0.32	
COCCn1ccnc1CN1CC[C@]2(OC)CC[C@@H](OC)C[C@H]12	-18	1.81	
Cc1ccc(F)cc1NC(=O)NC(C)(C)COc1ncccc1Br	-7	0.97	
CCn1cncc1CN(C)C[C@H](C)N1CCOCC1	-7	1.04	
CN1CCCC1C1CCCN1C(=O)c1n[nH]c(=O)c2ccccc12 (stereo unspecified)	-1	0.09	
O=C(CCn1c(=O)[nH]c2ccccc21)N1CC[C@H](O)[C@@H](O)C1	1	-0.1	
Cc1nn(C)c2nc(-c3ccncc3)nc(N3CCC(=O)NC[C@@H]3C)c12	-2	0.27	
COC[C@H](C)Oc1ccc(Cl)cc1S(=O)(=O)N1CCc2cnccc21	-14	1.63	
Cc1nnc([C@H](C)N(C)Cc2cnn(-c3ccccc3)c2)o1	-5	0.86	
CCC(CC#N)OC(=O)CC(C)NC(=O)C1CCCC1 (stereo unspecified)	-15	1.9	
COc1ccccc1N1CCN(C(=O)C2CN(c3cc(-n4cccn4)ncn3)C2)CC1	20	-2.59	
COCC1CN(C(=O)NCCCCN(C)c2ccccc2)C1	-1	0.2	
Cc1ncsc1C(=O)NC[C@H](O)c1ccc(Cl)s1	-9	1.26	
CCOC(=O)N1CCN(CC2CC3C=CC2C3)CC1 (stereo unspecified)	8	-1.26	
CCS(=O)(=O)NC1(C#N)CCCC(C)C1 (stereo unspecified)	0	0.01	
Cc1ncn(-c2ccc(CNC(=O)c3ccccc3)cc2)c1C	-3	0.34	
COCc1nccc(N2CCC3(CC2)C[C@@H]3C(=O)N2CCCCC2)n1	-4	0.48	
